Our source for the antibody binding signal values is the supplement of paper PMC10441789.

The other results are listed elsewhere or left out. Antibody binding of pooled human sera (four to six donors per pool; dilution not stated) to peptides of the Trypanosoma cruzi antigen TSSA on microarrays. Quantile-normalised fluorescence in arbitrary units, mean of duplicate arrays; higher = more binding. No active / inactive call. The uninfected pools are read here as the healthy donors of the same country. The strongest signals lie near the top of the scale (about 60,000).

The experiment has as its system pooled sera of uninfected people, Brazil. Kind of experiment: antibody binding signal (normalised fluorescence) (arbitrary fluorescence units); higher = stronger serum antibody binding to peptide. Here is the method:
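Microarray of overlapping 15-residue peptides of the four Trypanosoma cruzi TSSA reference variants and 8- to 13-residue peptides of TSSAII 24-62, probed with one serum pool per country.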
Regarding KKAAAGEAPSPSGAS, the antibody binding signal was determined as 80.8.

For PGASSGEA, the antibody binding signal stood at 176.

Sequence TSSTPPSGTE came in with an antibody binding signal of 107.

On to PPSGTEKKAAAGEAP, for which the antibody binding signal came to 208.

With APSPSGASSGEAEAS, the antibody binding signal came out at 152.

In the case of TSSTPPSGTENK, the antibody binding signal was 350.

NKPATGEAPS returned an antibody binding signal of 442.

GGSTISTPPSGTDKK: the antibody binding signal was 151.

Consider PSQPGASSGEAEA, for which the antibody binding signal came out at 122.

In the case of KPATGEAPSQPGASS, the antibody binding signal amounted to 315.

GGSTSSTPPSGTENK came in with an antibody binding signal of 686.

SQPGASSGEAEAS: the antibody binding signal stood at 107.

In the case of TANGGSTSST, the antibody binding signal was 299.

On to CTTANGGSTISTPPS, for which the antibody binding signal turned out to be 375.

Sequence SQPGASSGEAEA showed an antibody binding signal of 106.

PSGTENKPATG yielded an antibody binding signal of 934.

PPSGTENKPAT registered an antibody binding signal of 1070.

In the case of TGEAPSQPGASS, the antibody binding signal stood at 151.

STISTPPSGTDKKTA: the antibody binding signal is 233.

SSGEAEASSNKNDGS: the antibody binding signal turned out to be 150.

The sequence KPATGEAPSQPGA returned an antibody binding signal of 351.

Sequence TTANGGSTSSTPPSG gave an antibody binding signal of 372.

The sequence SSTPPGTDKKTAAGG showed an antibody binding signal of 134.

As to PSQPGASS, the antibody binding signal was 330.

Sequence GSTISTPPSGTEKKA yielded an antibody binding signal of 267.

Consider SGASSGEAEASSNKN, for which the antibody binding signal came to 110.

Sequence QPGASSGEAE gave an antibody binding signal of 115.

As for TPPSGTEN, the antibody binding signal stood at 121.

In turn, TGEAPSQPGA came in with an antibody binding signal of 225.

The sequence TTANGGSTSSTPPGT registered an antibody binding signal of 243.

Turning to KAAAGEAPSPSGASS, the antibody binding signal was found to be 96.3.

PATGEAPSQ gave an antibody binding signal of 177.

The sequence TANGGSTSSTP came in with an antibody binding signal of 198.

The sequence PPSGTENKP registered an antibody binding signal of 395.

Regarding KPATGEAP, the antibody binding signal was 174.

AAAGEAPSPSGASSG came in with an antibody binding signal of 180.

GTENKPATGE showed an antibody binding signal of 227.

Sequence SSTPPSGT registered an antibody binding signal of 169.

As to SGTENKPA, the antibody binding signal is 343.

The sequence ANGGSTISTPPSGTE had an antibody binding signal of 122.
